B1: UCCAUGA (DNA:RNA)
RNA: GGGAGACCGGAAUUCAGAUUGUCCUCCAUGAUUAAAUCCCGUCGUAGCCACCA
DNA 1: CAATCTGAATTCCGGTCTCCC
DNA 2: TGGTGGCTACGACGGGATT
B2: CACUCCU (DNA:RNA)
RNA: B1 RNA with U25C, C26A, A28U, U29C, G30C, A31U
DNA 1: CAATCTGAATTCCGGTCTCCC
DNA 2: TGGTGGCTACGACGGGATT
B3: GACGCGU (DNA:RNA)
RNA: B1 RNA with U25G, C26A, A28G, U29C, A31U
DNA 1: CAATCTGAATTCCGGTCTCCC
DNA 2: TGGTGGCTACGACGGGATT
B4: UCCCUCG (DNA:RNA)
RNA: B1 RNA with A28C, G30C, A31G
DNA 1: CAATCTGAATTCCGGTCTCCC
DNA 2: TGGTGGCTACGACGGGATT
B5: GAUUGUU (DNA:RNA)
RNA: GGGAGACCGGAAUUCAGAUUGUCCGAUUGUUUUAAAUCCCGUCGUAGCCACCA
DNA 1: CAATCTGAATTCCGGTCTCCC
DNA 2: TGGTGGCTACGACGGGATT
B6: GAAAUUU (DNA:RNA)
RNA: B5 RNA with U27A, U28A, G29U
DNA 1: CAATCTGAATTCCGGTCTCCC
DNA 2: TGGTGGCTACGACGGGATT
B7: CAUGCGC (DNA:RNA)
RNA: B5 RNA with G25C, U28G, G29C, U30G, U31C
DNA 1: CAATCTGAATTCCGGTCTCCC
DNA 2: TGGTGGCTACGACGGGATT
B8: GACCUGA (DNA:RNA)
RNA: B1 RNA with U25G, C26A, A28C
DNA 1: CAATCTGAATTCCGGTCTCCC
DNA 2: TGGTGGCTACGACGGGATT
B9: CGGGUUA (DNA:RNA)
RNA: B1 RNA with U25C, C26G, C27G, A28G, G30U
DNA 1: CAATCTGAATTCCGGTCTCCC
DNA 2: TGGTGGCTACGACGGGATT
B10: CAACCUU (DNA:RNA)
RNA: B5 RNA with G25C, U27A, U28C, G29C
DNA 1: CAATCTGAATTCCGGTCTCCC
DNA 2: TGGTGGCTACGACGGGATT
B11: CCGGCCG (DNA:RNA)
RNA: B1 RNA with U25C, C27G, A28G, U29C, G30C, A31G
DNA 1: CAATCTGAATTCCGGTCTCCC
DNA 2: TGGTGGCTACGACGGGATT
B12: GUGGGCC (DNA:RNA)
RNA: B5 RNA with A26U, U27G, U28G, U30C, U31C
DNA 1: CAATCTGAATTCCGGTCTCCC
DNA 2: TGGTGGCTACGACGGGATT
B13: UUCUUGA (DNA:RNA)
RNA: B1 RNA with C26U, A28U
DNA 1: CAATCTGAATTCCGGTCTCCC
DNA 2: TGGTGGCTACGACGGGATT
B14: AUCUCUU (DNA:RNA)
RNA: B5 RNA with G25A, A26U, U27C, G29C
DNA 1: CAATCTGAATTCCGGTCTCCC
DNA 2: TGGTGGCTACGACGGGATT
B15: UUCCCAA (DNA:RNA)
RNA: B1 RNA with C26U, A28C, U29C, G30A
DNA 1: CAATCTGAATTCCGGTCTCCC
DNA 2: TGGTGGCTACGACGGGATT
B16: GCUUAUC (DNA:RNA)
RNA: B5 RNA with A26C, G29A, U31C
DNA 1: CAATCTGAATTCCGGTCTCCC
DNA 2: TGGTGGCTACGACGGGATT
B17: AAAGCGG (DNA:RNA)
RNA: B5 RNA with G25A, U27A, U28G, G29C, U30G, U31G
DNA 1: CAATCTGAATTCCGGTCTCCC
DNA 2: TGGTGGCTACGACGGGATT
B18: GUCGAUU (DNA:RNA)
RNA: B5 RNA with A26U, U27C, U28G, G29A
DNA 1: CAATCTGAATTCCGGTCTCCC
DNA 2: TGGTGGCTACGACGGGATT
B19: AGAUAUG (DNA:RNA)
RNA: B5 RNA with G25A, A26G, U27A, G29A, U31G
DNA 1: CAATCTGAATTCCGGTCTCCC
DNA 2: TGGTGGCTACGACGGGATT
B20: CUAAGUG (DNA:RNA)
RNA: B5 RNA with G25C, A26U, U27A, U28A, U31G
DNA 1: CAATCTGAATTCCGGTCTCCC
DNA 2: TGGTGGCTACGACGGGATT

Positions count from the first letter of the chain named. The list shows a part of the results.

The assay addresses T1, RBFOX1 RRM RbFoxmut (Fox-RRM*) (Homo sapiens, UniProt Q9NWB1 109-208, R118D;E147R;N151S;E152T).
T1 sequence: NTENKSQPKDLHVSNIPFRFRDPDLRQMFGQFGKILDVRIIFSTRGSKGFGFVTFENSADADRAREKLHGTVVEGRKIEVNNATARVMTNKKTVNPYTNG
The assay is described as follows: EMSA; HiTS-Eq, 1 nM pool, 10 min; buffer printed only for the single-RNA assays: 10 mM Tris pH 7.5, 150 mM NaCl, 3.4 mM EDTA, 0.001% NP-40, 30 C. The note with it: tags: His6 N-terminal (pET28a); label: 5' 32P. An outline of the steps: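 Purified RbFox RRM, wild type or mutant, was incubated for 10 min in 50 µL with 1 nM of a 5′-radiolabelled RNA pool carrying 7 randomized nucleotides, whose flanks were annealed to DNA oligonucleotides, over a series of increasing protein concentrations. Unbound RNA was resolved on 8% native PAGE, cut out, reverse-transcribed, barcoded by PCR and sequenced on an Illumina HiSeq 2500. Relative association constants were derived from changes in read counts for each RNA species versus the control reaction and normalised to the cognate motif.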
For B1, the binding signal was 0.11 KA relative to UGCAUGU.
In the case of B2 it was 0.0697 KA relative to UGCAUGU; in that of B3, 0.105 KA relative to UGCAUGU; in that of B4, 0.133 KA relative to UGCAUGU.
Under B5 stands 0.179 KA relative to UGCAUGU; under B6, 0.0731 KA relative to UGCAUGU.
Under B7 stands 0.101 KA relative to UGCAUGU; under B8, 0.0686 KA relative to UGCAUGU.
Take B9: the binding signal was 0.139 KA relative to UGCAUGU.
Under B10 stands 0.119 KA relative to UGCAUGU.
Under B11 stands 0.0916 KA relative to UGCAUGU; under B12, 0.193 KA relative to UGCAUGU.
Under B13 stands 0.111 KA relative to UGCAUGU.
For the molecule B14, the binding signal is 0.0743 KA relative to UGCAUGU.
In the case of B15 it was 0.101 KA relative to UGCAUGU; in that of B16, 0.104 KA relative to UGCAUGU.
Take B17: the binding signal is 0.0725 KA relative to UGCAUGU.
In the case of B18 it was 0.0768 KA relative to UGCAUGU; in that of B19, 0.183 KA relative to UGCAUGU.
In the case of B20 it was 0.0707 KA relative to UGCAUGU.

The values are drawn from paper PMC9911399, “Two distinct binding modes provide the RNA-binding protein RbFox with extraordinary sequence specificity”.
